# Source: the supplement of paper PMC12645437, “Orthogonal IMiD-Degron Pairs Induce Selective Protein Degradation in Cells” (ACS Chemical Biology, 2025)
# The other results are listed elsewhere or left out.
# B1: Q9UKT9 (peptide)
# chain: FACDICGASFTQKGNLLRHIKL
# B2: Q9UKT9 (peptide)
# chain: FICEICGHWFTQKGNLLRHIKL
# B3: Q9UKT9 (peptide)
# chain: FQCPICGRIFTQKGNLLRHIKL
# B4: Q9UKT9 (peptide)
# chain: FQCEICGHWFTQKGNLLRHIKL
# B5: Q9UKT9 (peptide)
# chain: LGCEICGFWCTQKGNLLRHIKL
# B6: Q9UKT9 (peptide)
# chain: FYCPQCGAVFTQKGNLLRHIKL
# B7: Q9UKT9 (peptide)
# chain: FMCNICGAWFTQKGNLLRHIKL
# B8: Q9UKT9 (peptide)
# chain: FACDICGAVFTQKGNLLRHIKL
# B9: Q9UKT9 (peptide)
# chain: FGCPQCGAFFTQKGNLLRHIKL
# B10: Q9UKT9 (peptide)
# chain: FECNVCGAPFTQKGNLLRHIKL
# B11: Q9UKT9 (peptide)
# chain: FDCDICGAPFTQKGNLLRHIKL
# B12: Q9UKT9 (peptide)
# chain: LFCNQCGFWCTQKGNLLRHIKL
# B13: Q9UKT9 (peptide)
# chain: FKCEICGRAFTQKGNLLRHIKL
# B14: Q9UKT9 (peptide)
# chain: FKCEICGHGFTQKGNLLRHIKL
# B15: Q9UKT9 (peptide)
# chain: FSCEQCGAGFTQKGNLLRHIKL
# B16: Q9UKT9 (peptide)
# chain: LNCEICGFVCTQKGNLLRHIKL
# B17: Q9UKT9 (peptide)
# chain: FTCNQCGADFTQKGNLLRHIKL
# B18: Q9UKT9 (peptide)
# chain: FGCPICGHKFTQKGNLLRHIKL
# B19: Q9UKT9 (peptide)
# chain: FECPICGADFTQKGNLLRHIKL
# B20: Q9UKT9 (peptide)
# chain: FQCPICGAWFTQKGNLLRHIKL
# B21: Q9UKT9 (peptide)
# chain: FFCEICGHPFTQKGNLLRHIKL
# B22: Q9UKT9 (peptide)
# chain: FLCPVCGAAFTQKGNLLRHIKL
# B23: Q9UKT9 (peptide)
# chain: FRCDVCGASFTQKGNLLRHIKL
# B24: Q9UKT9 (peptide)
# chain: FKCEICGRKFTQKGNLLRHIKL
# B25: Q9UKT9 (peptide)
# chain: FMCEICGAHFTQKGNLLRHIKL
# B26: Q9UKT9 (peptide)
# chain: FVCPICGHPFTQKGNLLRHIKL
# B27: Q9UKT9 (peptide)
# chain: FECEVCGAWFTQKGNLLRHIKL
# B28: Q9UKT9 (peptide)
# chain: FGCNVCGAKFTQKGNLLRHIKL
# B29: Q9UKT9 (peptide)
# chain: FQCEVCGAKFTQKGNLLRHIKL
# B30: Q9UKT9 (peptide)
# chain: LDCNQCGFQCTQKGNLLRHIKL
# B31: Q9UKT9 (peptide)
# chain: LDCEICGFQCTQKGNLLRHIKL
# B32: Q9UKT9 (peptide)
# chain: FDCPICGRAFTQKGNLLRHIKL
# B33: Q9UKT9 (peptide)
# chain: FACDQCGASFTQKGNLLRHIKL
# B34: Q9UKT9 (peptide)
# chain: FMCEICGRAFTQKGNLLRHIKL
# B35: Q9UKT9 (peptide)
# chain: FWCNQCGRAFTQKGNLLRHIKL
# B36: Q9UKT9 (peptide)
# chain: FRCPICGRIFTQKGNLLRHIKL
# B37: Q9UKT9 (peptide)
# chain: FVCPQCGAWFTQKGNLLRHIKL
# B38: Q9UKT9 (peptide)
# chain: FHCNVCGACFTQKGNLLRHIKL
# B39: Q9UKT9 (peptide)
# chain: FICEQCGAVFTQKGNLLRHIKL
# B40: Q9UKT9 (peptide)
# chain: FACNQCGHAFTQKGNLLRHIKL
# B41: Q9UKT9 (peptide)
# chain: FICPQCGANFTQKGNLLRHIKL
# B42: Q9UKT9 (peptide)
# chain: LSCNQCGFNCTQKGNLLRHIKL
# B43: Q9UKT9 (peptide)
# chain: FNCEICGHQFTQKGNLLRHIKL
# B44: Q9UKT9 (peptide)
# chain: FGCPICGHIFTQKGNLLRHIKL
# B45: Q9UKT9 (peptide)
# chain: LNCPICGFDCTQKGNLLRHIKL
# B46: Q9UKT9 (peptide)
# chain: FDCPICGAIFTQKGNLLRHIKL
# B47: Q9UKT9 (peptide)
# chain: LQCNQCGFDCTQKGNLLRHIKL
# B48: Q9UKT9 (peptide)
# chain: FQCEVCGAPFTQKGNLLRHIKL
# B49: Q9UKT9 (peptide)
# chain: LMCNQCGFACTQKGNLLRHIKL
# B50: Q9UKT9 (peptide)
# chain: FNCPICGHWFTQKGNLLRHIKL
# Molecular target: no compound (DMSO)
# Assay: log2 fold change of degron read counts, EGFP-low vs EGFP+ sorted cells; higher = lower degron-EGFP level without compound (poor expression or instability)
# Conditions: compound: DMSO control; 18 h
# 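Note: jurkat cells carrying a lentiviral library of mutant zinc finger degrons fused to EGFP plus mCherry, mCherry+ cells FACS sorted, degron abundance counted by next-generation sequencing.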
row,Sequence,log2 fold change of degron read counts
1,B1,-0.932
2,B2,-1.53
3,B3,0.443
4,B4,-0.926
5,B5,1.63
6,B6,0.638
7,B7,0.444
8,B8,-1.82
9,B9,0.142
10,B10,-0.921
11,B11,-0.655
12,B12,2.11
13,B13,-1.88
14,B14,-2.38
15,B15,-1.04
16,B16,0.592
17,B17,-2.04
18,B18,0.244
19,B19,-0.818
20,B20,0.253
21,B21,0.248
22,B22,-0.254
23,B23,-2.21
24,B24,-1.29
25,B25,-1.13

row,Sequence,log2 fold change of degron read counts
1,B26,0.183
2,B27,-1.06
3,B28,-0.84
4,B29,-1.53
5,B30,0.374
6,B31,-0.328
7,B32,-0.629
8,B33,-2.27
9,B34,-1.18
10,B35,0.488
11,B36,0.673
12,B37,0.66
13,B38,-0.163
14,B39,-1.24
15,B40,-0.209
16,B41,-0.768
17,B42,0.439
18,B43,-1
19,B44,0.754
20,B45,0.668
21,B46,-0.28
22,B47,-0.274
23,B48,-0.704
24,B49,0.636
25,B50,0.658
